Out of some 330,000 compounds screened, about 80 (0.02%) were called active. Inconclusive means that the source gave no clear call. Such entries were picked first, then a sample of the others. The call rests on the fitted dose curve; in most records, active means well fitted activation curve with a large enough effect; inconclusive means small, poorly fitted or top-dose-only effect; inactive means flat fitted curve, though single readings scatter. Potencies of inconclusive entries are left out as doubtful fits.
Biological target: Beta-2 adrenergic receptor (Homo sapiens) (UniProt P07550)
Sequence of UniProt P07550 (P07550 whole entry, looked up): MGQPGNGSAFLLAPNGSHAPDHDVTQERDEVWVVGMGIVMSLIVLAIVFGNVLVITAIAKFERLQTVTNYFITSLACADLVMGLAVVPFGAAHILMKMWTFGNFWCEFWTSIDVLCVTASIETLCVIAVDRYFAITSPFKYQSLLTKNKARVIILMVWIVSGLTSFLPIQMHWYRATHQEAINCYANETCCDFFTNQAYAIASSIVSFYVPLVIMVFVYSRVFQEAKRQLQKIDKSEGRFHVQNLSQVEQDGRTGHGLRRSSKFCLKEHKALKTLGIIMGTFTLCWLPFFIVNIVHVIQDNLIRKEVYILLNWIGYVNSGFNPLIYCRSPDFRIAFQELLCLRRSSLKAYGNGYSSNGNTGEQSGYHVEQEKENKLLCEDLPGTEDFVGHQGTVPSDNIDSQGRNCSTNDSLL
Assay: qHTS assay of beta-arrestin-biased ligands of beta2-adrenergic receptor; further: nearly all actives have a fitted effect of over 65% in size;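 on activation: 0% = DMSO controls and full agonism = EC100 isoproterenol or metaproterenol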
Conditions: beta-arrestin recruitment to beta2AR, cell-based reporter; series mostly up to 46.1 µM; activation: at the top concentration
In short: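 Tango cells (recombinant beta2-AR with recombinant beta-arrestin; recruitment releases tTA driving luciferase) were treated with compounds titrated up to 46 microM for 18 hr at 37 degrees C. Luminescence gave %Activity, and concentration-response curves were curve-classified.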
Potency means the concentration at half of the fitted maximal effect; tags describe the fitted curve by direction and shape.

For Cc1cc(C2=CC(C)(c3cc(C)oc3C)Nc3nc(C(F)(F)F)nn32)c(C)o1 (stereo not drawn), which Potency is on record?
The Potency was inconclusive [rising, single point].

With Cc1oc(-c2ccccc2Cl)nc1CN1CCCCC1c1cccnc1 (stereo not drawn) as the molecule, how does the Potency read?
Its Potency is inconclusive [rising, single point].

Which Potency does the source give for CN1CCC(=C2c3ccccc3C=Cc3ccccc32)CC1 here?
The Potency was inconclusive [rising, single point].

For CC1Cc2ccccc2N1C(=O)CN1CCC(n2nnc3cc(C(F)(F)F)ccc32)CC1 (stereo not drawn), which “activation” value is on record?
The value was inactive: -0.746%.

With Cc1cc(C)nc(-n2nc(C)cc2NC(=O)CN2CCC(C)CC2)n1 as the molecule, how does the Potency read?
Its Potency is inconclusive [rising, single point].

Which Potency does the source give for CC1CC(C)CN(C(=O)CSc2nnc(-c3ccc(Cl)s3)o2)C1 (stereo not drawn) here?
The Potency was inconclusive [rising, single point].

CCOc1ccc2c(c1)C(C)=CC(C)(C)N2C(=O)Nc1ccccc1F was tested. Which Potency did it give?
The Potency was inconclusive [rising, single point].

How did the “activation” value turn out when CC(C)c1ccccc1NC(=O)COC(=O)CCN1C(=O)/C(=C\C=C\c2ccccc2)SC1=S was run?
Its value is inactive: -0.609%.

How did the Potency turn out when COc1ccc(N(C(=O)CCl)C(C)(C(=O)Nc2c(C)cccc2C)c2ccccn2)cc1 (stereo not drawn) was run?
Its Potency is active: 13 µM.

For NC(=S)N/N=C/c1ccc(-c2cccc([N+](=O)[O-])c2)o1, which Potency is on record?
Its Potency is inconclusive [rising, single point].

Which “activation” value does the source give for O=C(Nc1nc(-c2ccccc2)cs1)C1COc2ccccc2O1 (stereo not drawn) here?
The value was inactive: 0.151%.

Which Potency does the source give for CCN(CC)c1ccc(/C=N/NC(=O)C(O)(c2ccccc2)c2ccccc2)o1 here?
The Potency was inconclusive [rising, single point].

CCn1c(C)nc2cc(C(=O)N/N=C(\C)c3ccc(OC)cc3O)ccc21 was tested. Which “activation” value did it give?
Its value is inactive: 0.0157%.

O=C(CNCc1ccccc1Cl)Nc1ccc2c(c1)OCCO2 was tested. Which Potency did it give?
The Potency was inconclusive [rising, single point].

With Nc1cccc(-c2nc3ccccc3[nH]2)c1 as the molecule, how does the “activation” value read?
Its value is inactive: -0.0339%.

How did the Potency turn out when Oc1ccc(/C=N/NC(=S)N2CCOCC2)cc1 was run?
Its Potency is inconclusive [rising, full curve, poor fit].

How did the Potency turn out when Oc1ccc(N=Cc2sc3ccccc3c2Cl)cc1 was run?
Its Potency is active: 13 µM.

How did the Potency turn out when Oc1c(CNc2ccccc2)cc(COCc2ccccc2)c2cccnc12 was run?
Its Potency is inconclusive [rising, single point].

For COCC(=O)Nc1c(C(=O)Nc2ccc3c(c2)OCCO3)oc2ccccc12, which Potency is on record?
The Potency was inconclusive [rising, single point].

Which Potency does the source give for O=C(CC(c1ccco1)S(=O)(=O)c1ccccc1)c1ccccc1 (stereo not drawn) here?
The Potency was inconclusive [rising, single point].

Which Potency does the source give for O=C(CSc1cccc[n+]1[O-])c1ccc(Cl)cc1 here?
Its Potency is inconclusive [rising, single point].

For CCOC(=O)c1ccc(N2C(=O)c3n[nH]c(-c4ccco4)c3C2c2ccc([N+](=O)[O-])cc2)cc1 (stereo not drawn), which Potency is on record?
The Potency was inconclusive [rising, single point].

How did the Potency turn out when COc1ccc(Nc2cnn(-c3nc4ccccc4s3)c(=O)c2Cl)cc1 was run?
Its Potency is inconclusive [activator, full curve].

With CCn1c(SCC(=O)N/N=C/C=C\c2ccco2)nc2ccccc21 as the molecule, how does the Potency read?
The Potency was inconclusive [rising, single point].

For CCCCNC(=S)NCc1ccc2c(c1)cc(C)n2C, which “activation” value is on record?
The value was inactive: -0.683%.

For Cn1c(SCC(=O)N/N=C/C=C/c2ccco2)nc2ccccc21, which Potency is on record?
Its Potency is active: 18.4 µM.

How did the Potency turn out when CCn1c(O)c(N=NC(=S)NCC2CCCO2)c2ccccc21 (stereo not drawn) was run?
Its Potency is inconclusive [rising, single point].

Which Potency does the source give for C(=N\Nc1nc2ccccc2[nH]1)/C1CCCCC1 here?
Its Potency is inconclusive [rising, single point].

Cc1ccc(C2(C)NC(=O)N(CC(=O)NNC(=O)c3ccoc3C)C2=O)cc1 (stereo not drawn) was tested. Which “activation” value did it give?
The value was inactive: 0.169%.

CNC(=S)N/N=C/c1c(C)cccc1Cl was tested. Which Potency did it give?
Its Potency is inconclusive [rising, single point].

Which “activation” value does the source give for Clc1ccc(CN2CCCCCCC2)cc1Cl here?
Its value is inactive: 0.0438%.

For COC(=O)c1c(NC(=O)CN(c2ccccc2)S(C)(=O)=O)sc2c1CCCC2, which Potency is on record?
The Potency was inconclusive [rising, single point].

With Cc1ccc(C2=CC(c3cccs3)n3nnnc3N2)cc1 (stereo not drawn) as the molecule, how does the Potency read?
The Potency was inconclusive [activator, partial curve].

NC(=S)n1[nH]c(-c2ccc([N+](=O)[O-])cc2)c(N=Nc2cccc([N+](=O)[O-])c2)c1=O was tested. Which Potency did it give?
Its Potency is inconclusive [activator, full curve].

With C/C(=N\NC(=S)NC1CCCCC1)c1ccc(O)cc1 as the molecule, how does the Potency read?
Its Potency is inconclusive [rising, single point].

How did the Potency turn out when S=c1nc2ccccc2c2nc(-c3ccccc3)[nH]n12 was run?
Its Potency is active: 3.98 µM.

Which Potency does the source give for CC(C)Sc1cc(N2CCCC2)nc(-c2ccccc2)n1 here?
Its Potency is inconclusive [rising, single point].

For COc1ccc(C2=Nc3ccc(Br)cc3C(c3ccccc3)N2CC(=O)NN)cc1 (stereo not drawn), which “activation” value is on record?
Its value is inactive: -0.43%.

Cc1cc(C(=O)Nc2ccccn2)cs1 was tested. Which Potency did it give?
Its Potency is inconclusive [rising, single point].

For CC1=C(C)/C(=N\OS(=O)(=O)c2ccc(C)cc2)C=CC1=O, which Potency is on record?
Its Potency is inconclusive [rising, single point].

How did the Potency turn out when COc1cc(/C=C(\C#N)C(=O)NCC2CCCO2)ccc1OC(C)C (stereo not drawn) was run?
The Potency was inconclusive [rising, single point].

How did the Potency turn out when COc1ccc(CN2CCCC(C(=O)c3ccc(Cl)cc3)C2)cc1Cn1cccn1 (stereo not drawn) was run?
Its Potency is inconclusive [activator, partial curve].

For CCn1c(CNC(=O)c2ccccc2Br)nnc1SCC(=O)Nc1nncs1, which Potency is on record?
The Potency was inconclusive [rising, single point].

With Cc1ccc(N2C(=O)CS/C2=N\C(=S)Nc2ccccc2)cc1 as the molecule, how does the Potency read?
Its Potency is inconclusive [rising, single point].

Which Potency does the source give for Cc1ccc(S(=O)(=O)N(Cc2ccc(Cl)cc2)c2ccccc2C(=O)NCc2ccco2)cc1 here?
Its Potency is inconclusive [rising, single point].

How did the “activation” value turn out when NC(=S)NC(=O)/C=C/c1ccccc1 was run?
Its value is inactive: 0.141%.

CSc1nc(=S)c2[nH]c(=S)[nH]c2[nH]1 was tested. Which Potency did it give?
The Potency was inconclusive [rising, single point].

COc1cccc(C2C=C(Nc3ccccc3)C(=O)N2c2ccccc2)c1 (stereo not drawn) was tested. Which Potency did it give?
The Potency was inconclusive [rising, single point].

For O=C(c1ccc2c(c1)OCO2)N1CCN(c2ccccn2)CC1, which Potency is on record?
The Potency was inconclusive [rising, single point].

Which “activation” value does the source give for Clc1ccccc1-c1nc2nc3ccccc3nc2n1-c1ccc2c(c1)OCO2 here?
Its value is inactive: 11.4%.

COc1cccc(NC(=O)/C=C/c2ccccc2[N+](=O)[O-])c1 was tested. Which Potency did it give?
Its Potency is inconclusive [rising, single point].

For C/C(=N\NC(=S)NCCc1ccccc1)c1cccc(Br)c1, which Potency is on record?
Its Potency is inconclusive [rising, single point].

For CC(C)OC(=O)CCC/C=C\C[C@@H]1[C@@H](CC[C@@H](O)CCc2ccccc2)[C@H](O)C[C@@H]1O, which Potency is on record?
Its Potency is inconclusive [rising, single point].

COc1ccc(Cl)cc1C(Nc1cccnc1)c1ccc2cccnc2c1O (stereo not drawn) was tested. Which Potency did it give?
The Potency was inconclusive [activator, partial curve].

With CCN(Cc1nc2ccccc2c(=O)[nH]1)Cc1nc2ccsc2c(=O)[nH]1 as the molecule, how does the “activation” value read?
Its value is inactive: 0.716%.

Cc1ccc(C)c(Sc2ccc(NC(=O)CCl)cc2)c1 was tested. Which Potency did it give?
The Potency was inconclusive [rising, single point].

For O=C(NCCSc1ccccc1)c1cccnc1, which “activation” value is on record?
Its value is inactive: -0.944%.

Cc1cc(C)c2nc(Cl)c(CN(Cc3ccco3)C(=O)Nc3ccccc3C)cc2c1 was tested. Which “activation” value did it give?
Its value is inactive: -0.663%.

Which Potency does the source give for CC1=NN(C(N)=S)C(=O)C1N=Nc1cccc2ccccc12 (stereo not drawn) here?
Its Potency is inconclusive [rising, single point].

For O=C(CC1CC2CCC1C2)Nc1nc(-c2ccccn2)cs1 (stereo not drawn), which Potency is on record?
Its Potency is inconclusive [activator, partial curve].

O=C(C[C@H]1C/C=C\CC[C@H](Cc2ccc(F)cc2)C(=O)O[C@@H](c2ccccc2)CNC1=O)N[C@@H](CO)Cc1ccccc1 was tested. Which “activation” value did it give?
The value was inactive: -0.174%.

Which “activation” value does the source give for COc1cc(OC)cc(-c2c(-c3cccs3)c3cc(-c4ccc(OC)c(OC)c4)ccc3n2C)c1 here?
The value was inactive: -0.767%.

For Cc1ccc(NC(=S)NNC(=O)c2ccccc2O)c(C)c1, which Potency is on record?
The Potency was inconclusive [rising, full curve, poor fit].

For O=C1CSC(c2cn(-c3ccccc3)nc2-c2cc3ccccc3oc2=O)N1Cc1ccccc1 (stereo not drawn), which “activation” value is on record?
The value was inactive: -0.084%.

For CCOC(=O)c1cnc(-n2nc(C)cc2C)nc1N(CC)CC, which Potency is on record?
The Potency was inconclusive [activator, partial curve].

With COc1ccc(CN2CCNC(=O)C2CC(=O)N2CCCCO2)cc1OC (stereo not drawn) as the molecule, how does the “activation” value read?
The value was inactive: -0.465%.

COc1ccc2[nH]c(-c3cccc(F)c3)cc(=O)c2c1 was tested. Which “activation” value did it give?
The value was inactive: -0.547%.

For Cc1cccc(-c2ncc(CN3CCC(CO)(CCCc4ccccc4)CC3)cn2)c1, which Potency is on record?
The Potency was inconclusive [rising, single point].

For CCN(CC)c1ccc(/C=N/NC(=O)c2cnccn2)c(O)c1, which Potency is on record?
Its Potency is inconclusive [rising, single point].

Which “activation” value does the source give for O=C(/C=C/Nc1ccc(Br)cn1)c1cccc(OC(F)F)c1 here?
Its value is inactive: 0.23%.

How did the Potency turn out when Cc1ccc2cccc(SCC(=O)NCC#N)c2n1 was run?
The Potency was inconclusive [rising, single point].

For Cc1cc(/C=N/NC(N)=S)c(C)n1-c1ccc(Cl)cc1, which Potency is on record?
The Potency was inconclusive [rising, single point].

For CN(C)c1nc(=Nc2cccc(Cl)c2)ss1, which Potency is on record?
The Potency was inconclusive [rising, full curve, poor fit].
